Measurements published in PubChem BioAssay AID1508624 (National Center for Advancing Translational Sciences (NCATS), 2021).
The campaign covered roughly 48,000 compounds. About 120 (0.25%) were called active. Not shown: some 4% with an inconclusive outcome. The call rests on the fitted dose curve; in most records, active means well fitted activation curve with a large enough effect; inconclusive means small, poorly fitted or top-dose-only effect, or another doubt; inactive means no such curve, though single readings can be large or run the other way. This is one part of the list.

Assay: Primary qHTS for Identification of Small Molecule Activators of Huntingtin-Antisense Promoter Activity; further: nearly all actives have a fitted effect of over 55% in size
Details: HEK293 HTT-AS promoter firefly luciferase reporter, 24 h; series mostly up to 57.5 µM; activity change, positive = activation: at the top concentration
Summary of the method: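 Quantitative HTS used concentration series of up to 57.5 uM final on HEK293 luciferase reporter cells, 24 h at 37 degrees C. Readout was Dual-Glo firefly luminescence.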

Activity change, positive = activation, inactive:
O=C(C1CCCN(S(=O)(=O)c2cccs2)C1)N1CCN(c2ccccc2F)CC1 (stereo not given) -29.1%
CN1C(=O)c2ccccc2Sc2ccc(NC(=O)NCc3ccccc3Br)cc21 -43.5%
Cc1ccc(CN(Cc2cccn2-c2nnc(N3CCCC3=O)s2)C(=O)Nc2cc(C)cc(C)c2)cc1 -26.4%
Cc1nc2sc(C)c(C)n2c(=O)c1S(=O)(=O)NCCc1ccc(Cl)cc1 -14.2%
COc1ccc(-c2nc3c(c(SCC(=O)Nc4cc(C)cc(C)c4)n2)Cc2c(CO)cnc(C)c2O3)cc1 3.34%
COc1cccc(CN2C(=O)C3(SCC(=O)N3c3ccc(F)cc3)c3ccccc32)c1 (stereo not given) -41.4%
Cc1ccc(CN(Cc2ccco2)C(=O)c2ccccc2Cl)o1 -20%
O=C(NCc1cccc(Cl)c1)c1ccc2c(c1)nc1n2CCOC1 -1.3%
CC(=O)c1ccc(NC(=O)c2cn(C)c(=O)c3ccccc23)cc1 4.2%
CCCn1c2ccccc2c2cnn(CC(=O)Nc3ccccc3OC)c(=O)c21 -38.1%
O=C(c1ccc(C(=O)N2CCC(N3CCCC3)CC2)c(Nc2ccccc2)c1)N1CCC(N2CCCC2)CC1 -1.58%
COC(=O)c1ccccc1NC(=O)Cn1nc(C)c2nn(-c3ccc(Cl)cc3)c(C)c2c1=O -26.2%
COc1cc(NC(=O)Nc2nnc(N3CCCCC3)s2)cc(OC)c1 -34.5%
Cc1cccc(NC(c2cccc(Cl)c2)c2ccc3cccnc3c2O)n1 (stereo not given) -38.5%
OC[C@H]1O[C@@H](Oc2ccc(O)cc2)[C@H](O)[C@@H](O)[C@@H]1O -7.55%
Cc1ccc2c(CC(=O)Nc3ccc(S(=O)(=O)N4CCC(C)CC4)cc3)coc2c1 -12.1%
Cc1nn(-c2ccccc2)c2c1N(CCCC(=O)NCc1ccc(OC(C)C)cc1)C(=O)CS2 -43%
CC1CCc2nc3ccc(S(=O)(=O)N4CCC(C(=O)NCc5ccccc5Cl)CC4)cc3c(C(=O)O)c2C1 (stereo not given) -14.5%
O=c1c2[nH]c3ccccc3c2nc(SCc2ccccc2F)n1-c1ccc(F)cc1 -19%
CCc1ccccc1NC(=O)Cn1nc(-c2cc(C)ccc2C)c2c(c1=O)CCCC2 -14.9%
Cc1ccccc1OCC(=O)Nc1ccc(OCc2cc(=O)n3ccccc3n2)cc1 14%
Cc1ccc(CNC(=O)c2ccc3oc(=O)n(Cc4ccccc4)c3c2)cc1 -24.1%
COc1ccc(Cl)cc1NC(=O)C1CCCN(S(=O)(=O)c2ccc3c(c2)CCCC(=O)N3)C1 (stereo not given) -23.6%
O=C(CSc1nc2c(c(=O)[nH]1)CN(Cc1ccc3c(c1)OCO3)CC2)Nc1cc(F)ccc1F -5.4%
COc1ccc(NC(=O)CSc2nc3ccccc3n2CC(=O)NCc2ccc(F)cc2)cc1 -2.33%
COC(=O)c1ccc(NC(=O)c2cc3cc(C)ccc3n2C)cc1 -17.8%
CCCCSCCCNC(=O)c1cn(CC)c2ccc(S(=O)(=O)N3CCOCC3)cc2c1=O -24.6%
CCOc1ccc(NC(=O)CSc2nnc3c(C)cc4ccccc4n23)cc1 12.4%
COc1ccc(S(=O)(=O)N2CCC(C(=O)Nc3ccc(Oc4ccccc4)cc3)CC2)cc1OC -12.7%
Nc1ccc(S(=O)(=O)c2ccc(N)cc2)cc1 -3%
COc1ccc(NC(=O)c2ccc(-c3nc(COc4ccccc4)c(C)o3)cc2)cc1 -15.8%
COc1ccc2c(c1)c1c3n2CCN(C)C3=NCC1 -6.97%
CN(C)CCc1c[nH]c2ccc(Cn3cncn3)cc12 -5.07%
Cc1ccccc1C(=O)Nc1cccc(-c2nc3cccnc3s2)c1 -17.4%
COc1ccc(C(CNC(=O)COc2cc(C)c(Cl)c(C)c2)N2CCCCC2)cc1 (stereo not given) -16.2%
CC(C)C(C)(C)C(C)(C)C(C)(C)S -5.18% [at 116 µM, percent change from vehicle, -100% = no light]
COc1ccc(Cn2ccc3nc(C)c(C(=O)Nc4ccc(OC)c(OC)c4)cc3c2=O)cc1 -12.3%
COc1cccc(N2CCN(C(=O)CCn3nc(C)c(S(=O)(=O)N4CCCC4)c3C)CC2)c1 2.45%
O=C(CSc1nc(=O)n(Cc2ccncc2)c2c1CCC2)Nc1ccccc1 -4.71%
CCCN(CCC)C(=O)c1c[nH]c2ccc(S(=O)(=O)N(C)c3ccc(Cl)cc3)cc2c1=O -22.7%
CCCCOC(=O)c1ccc(NC(=O)C2(c3cccs3)CCOCC2)cc1 -21.5%
CCOC(=O)c1c(NC(=O)CSc2cn(CCNC(=O)c3ccc(OC)cc3)c3ccccc23)sc2c1CCC2 -49.5%
COc1ccc(NC(=O)CSc2nc(-c3ccccc3)cc(-c3cc(OC)c(OC)c(OC)c3)c2C#N)c(OC)c1 -18.2%
CCOc1ccccc1N(C)C(=O)c1sc2nc3n(c(=O)c2c1C)CCCC3 -14.4%
Cc1nn(CC(=O)Nc2ccc(C(C)C)cc2)c(=O)c2c(C)n(-c3ccc(Cl)cc3)nc12 -19.3%
COc1ccc(NC(=O)CSc2nccn2C2CCCC2)cc1OC -14.4%
COc1ccc(-c2cn3nc(N4CCCC(C(=O)Nc5ccccc5F)C4)sc3n2)cc1 (stereo not given) -17.5%
CCCCN(CCCNC(=O)c1cc(Nc2ccc(OC)cc2OC)nc2ccccc12)Cc1ccccc1 -34.1%
Cc1ccc(Cn2cc(S(=O)(=O)c3ccccc3)c(=O)c3cc(F)c(N4CCOCC4)cc32)cc1 -18%
Cn1ccc2cc(S(=O)(=O)N3CCN(C(=O)Nc4cccc(F)c4)CC3)ccc21 -15.3%
COc1ccc(NC(=O)C(c2ccc(OC)cc2)N(C)C(=O)Cc2cccs2)cc1 (stereo not given) -2.11%
CC(C)(Oc1ccc(Cl)cc1)C(=O)Nc1ccc(-c2nc3ncccc3o2)cc1 -4.05%
COc1ccccc1N1CCN(S(=O)(=O)CCNC(=O)c2cc(=O)c3ccccc3o2)CC1 -1.54%
COCCn1c(C)cc(O)c(C(c2ccccc2)N2CCN(c3ccc(F)cc3)CC2)c1=O (stereo not given) -6.43%
Cc1ccc(N(C)C(=O)Cn2nc(Cc3ccncc3)c3ccccc3c2=O)cc1C -3.73%
Cc1ccc(CNS(=O)(=O)c2ccc(F)c(C(=O)Nc3ccc(C)c(F)c3)c2)cc1 -18.6%
O=C(NCCS(=O)(=O)N1CCN(c2ccccc2F)CC1)c1cc(=O)c2ccccc2o1 -9.98%
O=C(NCCc1ccc(Cl)cc1)c1ccc(CS(=O)(=O)Cc2ccc(F)cc2)o1 -15.3%
O=C(Nc1ccc(F)cc1)c1ccc(-n2cnc3cccnc32)cc1 3.94%
COC(=O)c1c(SC)nc2ccccc2c1OCc1cccc(C)c1 -4.68%
O=c1c(S(=O)(=O)c2ccccc2)cn(Cc2ccc(F)cc2)c2cc(N3CCCC3)c(F)cc12 -12.9%
Cc1ccc(OCc2cc(=O)n3c4c(sc3n2)CCCC4)c(C)c1 -5.29%
COc1cccc(CNC(=O)C2CCC(CNS(=O)(=O)c3cccs3)CC2)c1 (stereo not given) -8.7%
CCCC(=O)N(c1ccc2oc3c(c2c1)CCCC3)S(=O)(=O)c1ccc(CC)cc1 -19.3%
Cc1ccccc1NC(=O)c1ccc(NC(=O)N2CCSc3ncccc32)cc1 -0.938%
COc1cccc(NC(=O)c2sc(-n3nc(C)c(Cc4ccccc4Cl)c3C)nc2C)c1 -4.25%
CC1CCN(S(=O)(=O)c2ccc3c(c2)N(CC(=O)NCc2ccccc2Cl)C(=O)CO3)CC1 -22%
COc1ccc(OC)c(-n2c(=O)[nH]c3cc(C(=O)NCCc4ccc(OC)c(OC)c4)ccc3c2=O)c1 -4.19%
COc1ccc(NCc2nc3ccccc3n2CCOc2ccccc2C)cc1 3.21%
CCSC1=NC2(CCN(C(=O)NC3CCCCC3)CC2)N=C1c1ccc(C)cc1 -9.18%
Cc1cc(S(=O)(=O)Nc2cc3c(cc2C)n(C)c(=O)c(=O)n3C)ccc1F -22.2%
Cc1ccccc1NC(=O)CSc1ncc2c(n1)-c1ccccc1N(C)S2(=O)=O -9.55%
Cc1cn2c(=O)cc(COC(=O)c3cccc(NC(=O)C(C)Oc4ccccc4)c3)nc2s1 (stereo not given) -29.8%
Cc1cc(C)c2c(n1)nn1c(C)c(CCC(=O)Nc3ccc(C)c(Cl)c3)c(C)nc21 -9.11%
CCOc1ccccc1NC(=O)c1c(NC(=O)C(C)Oc2cccc(Cl)c2)sc2c1CCCCC2 (stereo not given) -19.7%
CCn1c(Oc2ccc(F)cc2F)nc2c1c(=O)n(C)c(=O)n2C -28.8%
CCOc1ccc(CC(=O)Nc2c(C(=O)c3ccc(Cl)cc3)oc3ccccc23)cc1OCC -9.64%
CC1=C(C(=O)Nc2ccc(Cl)cc2)C(c2cccs2)n2nc(SCc3cccc(Cl)c3)nc2N1 (stereo not given) 0.493%
Cc1cccc(S(=O)(=O)c2cn(Cc3ccccc3)c3cc(N4CCC(C)CC4)c(F)cc3c2=O)c1 -11.2%
CCC1=Nc2cc(C(=O)NCCc3ccccc3)ccc2Sc2ccc(Cl)cc21 -18.9%
CCc1cc2c(cc3c(=O)n(CC(=O)NCc4cccc(Cl)c4)nc(CC)n32)s1 1.04%
COc1ccc(Nc2cc(C(=O)NCCCN(C)Cc3ccccc3)c3ccccc3n2)cc1OC -11.6%
COc1ccc(-n2nc3cc(C)c(NC(=O)COc4cccc(C)c4)cc3n2)cc1 2.55%
COc1cccc(CNC(=O)C(=O)NCC(c2cccs2)S(=O)(=O)c2cccs2)c1 (stereo not given) -23.1%
COc1cccc(OCc2nc3ccccc3n2Cc2ccccc2)c1 4.36%
CCC(CC)C(=O)Nc1cccc(-c2nc3cccnc3s2)c1 1.64%
COc1cccc(COC(=O)c2nn(-c3ccccc3)nc2N)c1 -0.804%
CNC(=O)C1CCC(Cn2c(=O)c3sccc3n(Cc3ccccc3)c2=O)CC1 (stereo not given) -6.08%
Cc1csc2nc(COC(=O)c3ccccc3NC(=O)c3ccccc3Cl)cc(=O)n12 -41.6%
COc1ccccc1CCNC(=O)c1cc2c(=O)n3cccc(C)c3nc2n1C -3.1%
COc1cc(OC)c(NC(=O)C(C)n2c(=O)cc(-c3ccccc3)c3c(C)nn(C)c32)cc1Cl (stereo not given) -34.5%
CCOc1ccc(-c2nc(Cn3c(=O)cc(-c4ccccc4)c4c(C)nn(C)c43)c(C)o2)cc1OC -5.48%
CCc1ccc(NC(=O)N2CC=C(c3c[nH]c4ccccc34)CC2)cc1 -25.4%
COc1ccc(C(=O)NCC(c2cccnc2)N2CCc3ccccc3C2)cc1 (stereo not given) -28.6%
CCN(CC)c1ccc(NC(=O)CCS(=O)(=O)c2cccc3nsnc23)c(C)c1 -7.46%
